Measurements as given in PubChem BioAssay AID1345083 (National Center for Advancing Translational Sciences (NCATS), 2018).
Values joined by “and” are separate entries in the source; they are usually repeats but may differ in a detail not shown here. Identical values can stand only once. Screen size: about 94,000 compounds; about 6,200 (6.6%) were called active. Inconclusive results, whose numbers are uncertain, are shown with a selection of clear calls. The call rests on the fitted dose curve; in most records, active means well fitted inhibition curve with a large enough effect; inconclusive means small, poorly fitted or top-dose-only effect; inactive means flat fitted curve, though single readings scatter. Potencies of inconclusive entries are doubtful fits and often do not repeat.

Assay: Cytotoxic Profiling in HEK 293 Cell Line of Diverse Libraries Using Quantitative High-Throughput Screening; further: nearly all actives have a fitted effect of over 60% in size
Conditions: HEK 293 viability, ATP luminescence (CellTiter-Glo), 48-72 h; activity change, negative = cytotoxicity: at 115 µM (top of the series) unless noted; series mostly up to 115 µM
Procedure, shortened: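 CellTiter-Glo luminescence (cellular ATP) was read after 48 or 72 hr of compound exposure at 37 degree Celsius. Cells were HEK 293 plated at 250 cells/well.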
On the % scale 0 is the no-effect control and ±100 the full control effect; potency means the concentration at half of the fitted maximal effect; tags describe the fitted curve by direction and shape.

Structure (SMILES)	Potency	activity change, negative = cytotoxicity	outcome
Cn1nccc1CN1CCC2(CC1)Cc1ccccc1NC2=O	inconclusive: 126 µM [inhibitor, partial curve, poor fit]		
O=C(NC1CC1)c1nc2cccnc2n(C2CCCC2)c1=O		inactive: 1% [at 172 µM]	
Cc1ccccc1-c1ccnc(-c2nnc(C)n2Cc2ccccc2)c1	active: 79.4 µM		
O=C(N1CCOCC1)N1CCC2(CC1)CC(c1cccc(C(F)(F)F)c1)=NO2	inconclusive: 44.7 µM [inhibitor, partial curve, poor fit]		
O=C(NCCC(c1ccccc1)c1ccccc1)c1cn(C2CCCCC2)nn1	inconclusive: 89.1 µM [inhibitor, single point]		
CNC(=O)[C@@H]1C[C@H](Oc2ccccc2)CN1C(=O)CCOC		inactive: -8.89%	
Cc1cnc(C2CCC2)n1C1CCN(C(=O)CCC2CCCC2)CC1	inconclusive: 89.1 µM [inhibitor, partial curve, poor fit]		
COc1ccc(-c2cc(N3CCC(NC(=O)Cc4ccccc4Cl)CC3)n[nH]2)cc1	inconclusive: 50.1 µM [inhibitor, partial curve, poor fit]		
Cc1ccc(CNC(=O)N2CCCC(c3noc(COc4ccccc4F)n3)C2)cc1 (stereo not drawn)	inconclusive: 89.1 µM [inhibitor, single point]		
NCc1ccccc1-c1cnc2ccccc2c1	inconclusive: 100 µM [inhibitor, partial curve]		
O=C(NCCCc1ccccc1)C1CCCN1C(=O)c1cccc(-c2cccnc2)c1 (stereo not drawn)		inactive: -16.7%	
O=C(NCCc1ccccc1)c1c[nH]c2ncccc12		inactive: -2.89% [at 172 µM]	
CC1(NC(=O)C2CC2)CN(Cc2nc(-c3cccc(F)c3)cs2)C1	inconclusive: 100 µM [inhibitor, partial curve]		
O=[S+]([O-])(c1ccccc1)N1CCCC2(CC(c3cccc(C(F)(F)F)c3)=NO2)C1 (stereo not drawn)	inconclusive: 39.8 µM [inhibitor, full curve]		
O=C(NC1CC1)c1ccccc1OCC1CCCN(Cc2cn[nH]c2-c2cccs2)C1 (stereo not drawn)	inconclusive: 89.1 µM [inhibitor, single point]		
COC(=O)N1CCN(C(=O)c2nc3cccnc3n(CC(C)C)c2=O)CC1		inactive: -7.3%	
CNC(=O)c1cc(C2CC2)nc2onc(C3CCN([S+](=O)([O-])c4ccccc4)CC3)c12	inconclusive: 44.7 µM [inhibitor, partial curve, poor fit]		
CCOC(=O)[C@@H]1CN(C(=O)c2ccc(C(F)(F)F)cc2)[C@H]2c3cccc(F)c3O[C@@H]12	inconclusive: 50.1 µM [inhibitor, partial curve, poor fit]		
Cc1noc2c(NCCCn3ccnc3)cc(-c3ccc(Cl)cc3)nc12	inconclusive: 31.6 µM [inhibitor, full curve, poor fit]		
CC(C)(C)n1nnnc1C1CC2(CCOCC2)C(=O)N1CCc1nc2ccccc2[nH]1 (stereo not drawn)			inactive
CCOc1ccccc1NC(=O)Cn1c(-c2ccccc2)nc(C)cc1=O	inconclusive: 50.1 µM [inhibitor, partial curve, poor fit]		

Structure (SMILES)	Potency	activity change, negative = cytotoxicity	outcome
Cc1ccc(NC(=O)Cn2ccn3nc(-c4ccc(F)cc4)c(CO)c3c2=O)c(C)c1	inconclusive: 56.2 µM [inhibitor, partial curve, poor fit]		
Cc1noc(-c2ccc3c(c2)OCO3)c1C(=O)NC(C)CCc1ccccc1 (stereo not drawn)	active: 44.7 µM		
COc1ccc(OCc2nc(C)c(CCO)c(=O)n2CC(=O)Nc2c(C)cccc2C)cc1			inactive
COc1ccc(C(=O)Nc2ccc3c(c2)CN(C(C)c2ccc(F)cc2)C(=O)CO3)cc1OC (stereo not drawn)	inconclusive: 63.1 µM [inhibitor, partial curve, poor fit]		
Cc1cc(C(=O)N2CCC(c3noc(-c4cnccn4)n3)C2)nn1C (stereo not drawn)		inactive: 15.3%	
O=C(NCCc1cnc[nH]1)C1CCN(C2CCCCC2)CC1		inactive: -17.9%	
O=c1cc(-c2cccnc2)oc2c(-c3cn[nH]c3)nccc12		inactive: -22.7% [at 230 µM]	
COc1ccc(N2CC3CCC(C2)N3Cc2cccc(-c3cccs3)c2)cc1	inconclusive: 50.1 µM [inhibitor, partial curve, poor fit]		
O=C1[C@H]2CN(Cc3ccc(Cl)cc3)C[C@H]2C(=O)N1CCN1CCc2ccccc2C1	inconclusive: 50.1 µM [inhibitor, partial curve, poor fit]		
COc1ccc(C)cc1NC(=O)c1ccc2c(c1)C(O)CCCCCN2C (stereo not drawn)	inconclusive: 56.2 µM [inhibitor, partial curve, poor fit]		
COCCN1Cc2nc(-c3cccc(OC(F)(F)F)c3)ccc2OCC1=O	inconclusive: 79.4 µM [inhibitor, partial curve]		
CCC(C(=O)Nc1ccc2c(c1)CN(Cc1ccc(OC)cc1OC)C(=O)C(C)O2)c1ccccc1 (stereo not drawn)	inconclusive: 79.4 µM [inhibitor, partial curve, poor fit]		
O=C(NC1CCC1)c1ccc2c(c1)C1(CCN(CC3CC3)C1)CN2Cc1ccccc1 (stereo not drawn)	active: 56.2 µM		
COc1ccccc1CNC[C@H]1Cn2c(-c3ccccc3)cnc2CO1	inconclusive: 126 µM [inhibitor, single point]		
COc1cccc(C(=O)N2CC(c3nnc(-c4ccc(C)cc4)o3)C3(CCOCC3)C2)c1C (stereo not drawn)	inconclusive: 70.8 µM [inhibitor, partial curve]		
COc1cccc2c1OCCCN(c1cc(C3CC(O)C3)nc(N)n1)C2 (stereo not drawn)	inconclusive: 7.94 µM [inhibitor, full curve, poor fit]		
O=C1CC2(CCN(C(=O)[C@@H]3CCCN3)CC2)CN1Cc1ccc(F)c(F)c1		inactive: -12.6%	
O=C(COc1ccc(F)cc1)Nc1cccc(-c2nnc3n2CCCC3)c1	inconclusive: 56.2 µM [inhibitor, partial curve, poor fit]		
O=C(NC1CCCCCC1)c1ccc2nc(-c3ccnc(Cl)c3)oc2c1	inconclusive: 126 µM [inhibitor, single point]		
CC1(COc2cccnc2)COc2ccc(C(=O)NCc3ccc4c(c3)OCO4)cc2N1 (stereo not drawn)	inconclusive: 63.1 µM [inhibitor, partial curve, poor fit]		
CCCN(CCC)C(=O)C1COC2(CCC(C)CC2)N1C(=O)c1ccc(F)cc1 (stereo not drawn)	inconclusive: 28.2 µM [inhibitor, full curve]		

Structure (SMILES)	Potency	activity change, negative = cytotoxicity	outcome
O=C(c1ccccc1)N1CCC2(CC1)N=C(c1cccc(Br)c1)NO2	inconclusive: 89.1 µM [inhibitor, single point]		
O=C(Cc1c[nH]c2ccccc12)N1CCC2(CC1)CC(OCC1CC1)CCO2 (stereo not drawn)	inconclusive: 56.2 µM [inhibitor, partial curve, poor fit]		
O=C(c1ccco1)N1CC(Oc2ccc(-c3nc(-c4ccccc4)no3)cc2)C1	active: 20 µM		
CN1CCC2(CC1)CN(C(=O)Nc1ccccc1)Cc1ccccc1O2	inconclusive: 39.8 µM [inhibitor, partial curve, poor fit]		
CCOc1cc(=O)n2c(c1C(=O)Nc1ccc(C(C)C)cc1)CCCC2		inactive: -5.19%	
COCCN1C[C@H]2COc3ccc(C)cc3[C@H]2N(C(=O)c2cccc(OC)c2)CCC1=O	inconclusive: 89.1 µM [inhibitor, single point]		
O=C(Nc1ccc2ncnc(N3CCCCC3)c2c1)c1cccc(F)c1	inconclusive: 44.7 µM [inhibitor, partial curve, poor fit]		
Cn1nc(C2CC2)cc1NC(=O)C1CC1		inactive: -4.91% [at 230 µM]	
CN(Cc1ccccc1)C(=O)C1(c2ccc(NC(=O)C3CC3)cc2)CCCCC1	active: 35.5 µM		
COc1cccc(-c2nnnn2[C@H]2CO[C@H]3[C@@H]2OC[C@@H]3NC(=O)C2CCCCC2)c1	inconclusive: 70.8 µM [inhibitor, partial curve, poor fit]		
CCN(CC)C(=O)C(NC(=O)c1ccc(C)cc1)C1CCN(C(=O)c2cccc(OC)c2)CC1 (stereo not drawn)	inconclusive: 28.2 µM [inhibitor, partial curve, poor fit]		
Oc1ccccc1CN[C@H]1[C@H](O)[C@@H](N2CCC(Cc3ccccc3)CC2)[C@@H]2OC[C@H]1O2	inconclusive: 100 µM [inhibitor, partial curve, poor fit]		
O=C1Nc2ccccc2CC12CCN([S+](=O)([O-])c1cccs1)C2 (stereo not drawn)	inconclusive: 20 µM [inhibitor, full curve, poor fit]		
COc1ccccc1C(=O)N1CCN(Cc2ccccc2-c2ccc(C)c(Cl)c2)CC1	inconclusive: 25.1 µM [inhibitor, partial curve, poor fit]		
CC1(COc2ccccc2)COc2ccc(C(=O)NCc3cccs3)cc2N1 (stereo not drawn)	active: 112 µM		
Cc1ccc(C(=O)N2CCC3(C2)C(=O)N(CCc2ccccc2)c2ccccc23)cc1 (stereo not drawn)	active: 31.6 µM and inconclusive: 44.7 µM [inhibitor, partial curve, poor fit]		
CCNC(=O)N1CC(N2C(=O)c3c(c(C)nn3-c3ccccc3)C2C2CC2)C1 (stereo not drawn)	inconclusive: 89.1 µM [inhibitor, single point]		
CS(=O)(=O)N1CCC(Oc2ccc(C(=O)NCCc3cnccn3)cc2Cl)CC1		inactive: -4.66%	
O=C(C1CCCCC1)N1Cc2[nH]cnc2C[C@H]1c1nc(-c2ccc3ccccc3c2)no1	inconclusive: 70.8 µM [inhibitor, full curve, poor fit]		
COc1ccccc1C(=O)N1CCc2nc(C(C)C)nc(-c3ccc(Cl)cc3)c2CC1	inconclusive: 89.1 µM [inhibitor, single point]		
COc1cccc(CC(=O)NCC23CCCC=C2N(CC2CC2)C(=O)CC3)c1 (stereo not drawn)	inconclusive: 50.1 µM [inhibitor, partial curve, poor fit]		
